Consider one compound from PubChem BioAssay AID1794744 (DTP/NCI, 2022).

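Single-concentration screen, 48 h exposure, 96-well plates. Endpoint: percent growth. Below 10 = active.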 Some entries of the source have several records that differ or are many. They are shown here; other results are not. There may be further records. These are repeated runs of one drug, at its own concentration, as given; one value stands for one run. Additions like (4×) stand for listed records that agree.

The assay concerns DMS 273 lung. Kind of assay: NCI-60 one-dose screen, 48 h (100 = growth as untreated, 0 = no growth, -100 = all killed). Conditions: 2.5 mM. As to the method: Growth inhibition of the DMS 273 human tumor cell line is measured as a screen for anti-cancer activity. Cells are grown in 96 well plates and exposed to the test compound for 48 hours. Compounds are tested at a single concentration, which is 10^-5 M for most compounds. The reported endpoint is percent growth (GI% or GIPRCNT), where numbers from 0 - 100% represent growth inhibition, and numbers from -100% - 0 represent cell death. For example, a value of 40 represents 60% growth inhibition. A value of 0 means no net growth occurred over the course of the experiment. A value of -40 indicates 40% of cells at the beginning of the experiment died by the end of the experiment. A value of -100 means all cells are dead at the end of the experiment.
NCI-60 Human Tumor Cell Lines Screen was performed using the standard one-dose NCI protocol, which is described in more detail at https://dtp.cancer.gov/discovery_development/nci-60/default.htm.
Compounds with GIPRCNT values below 10 were considered active. Activity score was based on GIPRCNT using the following formula: […]
Score is 0 for GIPRCNT values of 100 or above, 50 for GIPRCNT values of 0, and 100 for GIPRCNT values of -100.

With `O=c1[nH]cc(F)c(=O)[nH]1`, the growth is 24.9, 4.67, -20.8, -9.55, 5.38, 12.2, 5.35, 0.0978, 10.9, 9.35, 4.08, 4.86% (runs of 1991) and -8.68, -32.3, 7.21, -26.4, 1.66, 4.88, 1.31, 5.49, 8.06, 8.68, 13.4, 5.56, 13.3, 3.25, 8.31, -1.97, 3.51, -29, -12.9, 106, 4.71, 2.41, 9.73, 7.28, 7.82 (2×), 14.7, -20.5, 4.99, 4.95, -10.9, 2.59, -22.4, 5.04, 4.98, 5.96, 4.75, 3.47, 7.55, 10.4 (2×), 9.89, 3.28, 1.97, -17, 6.02 (2×), 4.04, 3.75, 11.7, 0.682, 13.2, 5.91, 9.26, 0.544, -1.49, -25.8, 0.803, -8.03, 3.09, 1.18, -23.6, -22.6, -10.4, 9.42, 7.95, 9.95, 5.07, -5.81, 6.85, -15.2, 7, 12.7, 13.9, 6.58, -1.43, -33.9, 39.7, 14.4, 7.9, 9.67, 6.36, -28.4, -5.43, 8.62, 15.2, 16.9, 4.31% (runs of 1992).
